US20200085917A1 (UNIVERSITY OF PITTSBURGH OF THE COMMONWEALTH SYSTEM OF …, published 2020)

Columns and labels:
Test in all cases: GST pull-down, LC-MS/MS
Sccpdh_IPI:IPI00153266.1 = target: T1, Sccpdh_IPI:IPI00153266.1 (mouse, UniProt Q8R127 2-429)
T1 sequence (looked up): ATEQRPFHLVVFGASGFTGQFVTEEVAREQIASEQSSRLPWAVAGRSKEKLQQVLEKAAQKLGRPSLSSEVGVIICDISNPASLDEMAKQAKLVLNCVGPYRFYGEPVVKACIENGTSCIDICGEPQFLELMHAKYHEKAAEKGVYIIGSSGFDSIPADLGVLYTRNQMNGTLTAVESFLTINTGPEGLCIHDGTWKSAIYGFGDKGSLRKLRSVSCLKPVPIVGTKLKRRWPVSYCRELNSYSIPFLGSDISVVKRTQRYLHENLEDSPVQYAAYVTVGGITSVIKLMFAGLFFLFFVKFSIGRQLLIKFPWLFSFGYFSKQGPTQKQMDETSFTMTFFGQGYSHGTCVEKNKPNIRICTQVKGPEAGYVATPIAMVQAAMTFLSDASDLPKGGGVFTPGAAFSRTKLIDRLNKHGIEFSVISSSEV

Stoml2_IPI:IPI00115117.1 = target: T2, Stoml2_IPI:IPI00115117.1 (mouse, UniProt Q99JB2 29-353)
T2 sequence (looked up): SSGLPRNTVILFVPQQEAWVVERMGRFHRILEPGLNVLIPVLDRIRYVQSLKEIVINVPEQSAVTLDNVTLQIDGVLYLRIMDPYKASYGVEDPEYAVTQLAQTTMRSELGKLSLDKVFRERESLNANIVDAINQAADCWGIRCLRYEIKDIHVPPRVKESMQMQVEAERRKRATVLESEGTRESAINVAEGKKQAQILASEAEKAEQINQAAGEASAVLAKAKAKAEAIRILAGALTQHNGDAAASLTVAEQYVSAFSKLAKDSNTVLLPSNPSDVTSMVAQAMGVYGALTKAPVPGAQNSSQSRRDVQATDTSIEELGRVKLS

Mtx1_IPI:IPI00112327.1 = target: T3, Mtx1_IPI:IPI00112327.1 (mouse, UniProt P47802 1-317)
T3 sequence (looked up): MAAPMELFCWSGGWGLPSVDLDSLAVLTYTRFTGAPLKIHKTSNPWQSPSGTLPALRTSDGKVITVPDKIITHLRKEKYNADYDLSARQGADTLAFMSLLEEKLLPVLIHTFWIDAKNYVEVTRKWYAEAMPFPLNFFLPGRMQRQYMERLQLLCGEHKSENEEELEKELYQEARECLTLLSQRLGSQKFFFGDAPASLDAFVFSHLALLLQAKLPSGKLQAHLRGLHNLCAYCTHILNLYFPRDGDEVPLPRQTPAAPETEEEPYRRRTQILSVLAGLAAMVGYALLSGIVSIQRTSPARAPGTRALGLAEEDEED

Coq5_IPI:IPI00379695.2 = target: T4, Coq5_IPI:IPI00379695.2 (mouse, UniProt Q9CXI0 50-327)
T4 sequence (looked up): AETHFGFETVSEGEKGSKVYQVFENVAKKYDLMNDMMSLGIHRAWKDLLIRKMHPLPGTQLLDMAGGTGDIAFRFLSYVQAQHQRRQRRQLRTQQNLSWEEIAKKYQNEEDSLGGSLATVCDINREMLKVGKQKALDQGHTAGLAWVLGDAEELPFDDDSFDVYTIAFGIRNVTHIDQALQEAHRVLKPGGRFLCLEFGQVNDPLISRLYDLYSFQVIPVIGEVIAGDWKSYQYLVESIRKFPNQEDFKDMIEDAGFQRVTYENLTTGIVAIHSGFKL

Pnkd_IPI:IPI00187405.4 = target: T5, Pnkd_IPI:IPI00187405.4 (mouse, UniProt Q69ZP3 1-385, limits assumed)
T5 sequence (looked up): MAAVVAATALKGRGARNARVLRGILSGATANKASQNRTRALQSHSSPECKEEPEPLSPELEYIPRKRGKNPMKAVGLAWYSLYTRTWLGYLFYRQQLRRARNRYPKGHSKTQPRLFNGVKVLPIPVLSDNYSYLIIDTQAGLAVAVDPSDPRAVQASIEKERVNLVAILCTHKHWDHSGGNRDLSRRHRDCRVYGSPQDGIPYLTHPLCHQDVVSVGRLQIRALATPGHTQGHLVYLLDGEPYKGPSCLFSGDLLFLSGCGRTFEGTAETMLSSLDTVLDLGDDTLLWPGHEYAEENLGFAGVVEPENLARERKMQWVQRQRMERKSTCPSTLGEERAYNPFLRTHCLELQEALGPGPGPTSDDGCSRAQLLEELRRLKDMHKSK

Ppt1_IPI:IPI00331318.2 = target: T6, Ppt1_IPI:IPI00331318.2 (mouse, UniProt O88531 28-306)
T6 sequence (looked up): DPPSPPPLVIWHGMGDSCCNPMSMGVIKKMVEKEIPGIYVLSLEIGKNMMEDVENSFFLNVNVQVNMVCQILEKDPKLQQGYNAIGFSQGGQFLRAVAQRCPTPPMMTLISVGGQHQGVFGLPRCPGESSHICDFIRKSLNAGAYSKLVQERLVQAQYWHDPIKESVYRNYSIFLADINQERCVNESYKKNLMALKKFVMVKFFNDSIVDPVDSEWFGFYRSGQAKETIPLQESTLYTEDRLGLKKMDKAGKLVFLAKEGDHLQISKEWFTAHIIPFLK

binding result (Sccpdh_IPI:IPI00153266.1): no binding | binding result (Stoml2_IPI:IPI00115117.1): no binding | binding result (Mtx1_IPI:IPI00112327.1): no binding | binding result (Coq5_IPI:IPI00379695.2): no binding | binding result (Pnkd_IPI:IPI00187405.4): no binding | binding result (Ppt1_IPI:IPI00331318.2): no binding
B1: GST alone (other)
chain: not shown
notes: Negative control of the pull-downs; also called control GST
